# Measured values: PubChem BioAssay AID1345083 (National Center for Advancing Translational Sciences (NCATS), 2018)
# Screen size: about 94,000 compounds; about 6,200 (6.6%) were called active. This list was built around the results that the source calls inconclusive (neither active nor inactive); the mix of calls is not that of the screen. Calls follow the shape of the dose curve; as a rule, active = well fitted inhibition curve with a large enough effect; inconclusive = small, poorly fitted or top-dose-only effect; inactive = flat fitted curve, though single readings scatter. A potency beside an inconclusive call is a rough fit, not a confirmed value.
# Test: Cytotoxic Profiling in HEK 293 Cell Line of Diverse Libraries Using Quantitative High-Throughput Screening; also: nearly all actives have a fitted effect of over 60% in size
# Details: HEK 293 viability, ATP luminescence (CellTiter-Glo), 48-72 h; activity change, negative = cytotoxicity: at 115 µM (top of the series) unless noted; series mostly up to 115 µM
# How it was run: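 Cytotoxicity was scored by loss of ATP-coupled luminescence (CellTiter-Glo) in HEK 293 cells. Compound treatment ran 48 or 72 hr at 37 degree Celsius, 5% CO2, 95% humidity.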
# % is scaled to controls: 0 for no effect and ±100 for the full control effect; potency is read from the fitted curve at half-maximal effect; tags tell the direction and shape of the fitted curve.
SMILES,"activity change, negative = cytotoxicity",Potency
O=C1NCCCCCCN(C(=O)c2cccnc2)[C@H]2CCC[C@@H]12,inactive: 3.33%,
COc1ccc(-c2cc(-c3c(C)noc3C)c3cncn3c2)cc1OC,,"inconclusive: 12.6 µM [inhibitor, partial curve, poor fit]"
Cc1ccc(C2Cn3nnc(-c4nc(C5CCCCC5)no4)c3CO2)c(C)c1 (centres undefined),,"inconclusive: 89.1 µM [inhibitor, single point]"
CCOc1ncccc1CNC(=O)c1cc(S(N)(=O)=O)ccc1F,,active: 79.4 µM
CC(C)NC(=O)N1CCCCCCNC(=O)[C@@H]2CCCC[C@@H]21,inactive: 4.58%,
O=C(c1ccc(F)cc1)N1CCn2c(nn(-c3ccncc3)c2=O)C1,,"inconclusive: 31.6 µM [inhibitor, partial curve, poor fit]"
CC1=C[C@@H](CNCc2ccc(C#N)cc2)[C@H](C(C)C)C[C@H]1Cc1nnc(-c2cccnc2)o1,,"inconclusive: 50.1 µM [inhibitor, partial curve, poor fit]"
Cn1ncc2c(C(=O)NCCc3ccccn3)cc(-c3cc(Cl)cc(Cl)c3)nc21,inactive: -2.62%,
Cc1cc(S(=O)(=O)N2CCCC2c2noc(COc3ccc(F)cc3)n2)ccc1F (centres undefined),,"inconclusive: 50.1 µM [inhibitor, partial curve, poor fit]"
COC(=O)C1=C(C)N=C2SC=C(CC(=O)NCc3ccco3)N2C1c1cccc(OC)c1 (centres undefined),inactive: -10.1%,
Cn1ccc2c(C(=O)NCc3cccnc3)nc(-c3cccc4cc[nH]c34)cc21,,"inconclusive: 39.8 µM [inhibitor, full curve, poor fit]"
O=C(c1cc(-c2ccccc2)n[nH]1)N1CCCC(Cc2noc(-c3cccnc3)n2)C1 (centres undefined),inactive: -28.5%,
COC(=O)[C@@H]1Cc2c([nH]c3ccccc23)[C@H]2C[C@@H](NCc3cccnc3)C[C@@H](c3ccc(C(F)(F)F)cc3)N21,,"inconclusive: 28.2 µM [inhibitor, full curve, poor fit]"
Cc1nc([C@@H]2CN(C(=O)c3nccc4ccccc34)C[C@H]2C(N)=O)n[nH]1,,"inconclusive: 89.1 µM [inhibitor, single point]"
O=C1COc2ccc(Nc3cccnc3)nc2CN1Cc1ccc(C(F)(F)F)cc1,,active: 89.1 µM
Cc1cccc(-c2nc3ccc(C(=O)NC(C)C)cc3o2)n1,,"inconclusive: 35.5 µM [inhibitor, partial curve, poor fit]"
O=C(NCc1cccnc1)C1c2ccccc2C(=O)N(C2CCCC2)C12CCCCC2 (centres undefined),,"inconclusive: 50.1 µM [inhibitor, partial curve, poor fit]"
CCCCCC(=O)Nc1nc2c(s1)C[C@@H]1[C@](C)(CO)[C@H](O)CC[C@@]1(C)[C@@H]2CC(=O)N[C@H](C)c1ccccc1,,active: 39.8 µM
COc1cccc(NCc2nnc(C(=O)N3CCC[C@@H]3c3cccc(F)c3)n2-c2ccccc2)c1,,"inconclusive: 79.4 µM [inhibitor, single point]"
COc1cccc(-c2cccc(C(=O)N3CCCC3C(=O)N3CCOCC3)c2)c1 (centres undefined),inactive: -19.8%,

SMILES,"activity change, negative = cytotoxicity",Potency
O=C1NC2(CCCN(Cc3cncs3)C2)COc2ccccc21 (centres undefined),,active: 28.2 µM
O=C1CCC2(C(=O)NCC3CC3)CCCC=C2N1c1ccccc1 (centres undefined),,"inconclusive: 79.4 µM [inhibitor, partial curve, poor fit]"
O=C(NCCNC(=O)c1cccc(-c2ccsc2)c1)Nc1ccc(Cl)cc1,,"inconclusive: 31.6 µM [inhibitor, partial curve, poor fit]"
COc1ccc(C2(C(=O)N3CCc4ccccc4C3)CCOCC2)cc1,,"inconclusive: 28.2 µM [inhibitor, full curve]"
O=C(c1ccc(F)cc1)N1CCC(OC2CCN(Cc3ccccc3)CC2)CC1,,"inconclusive: 79.4 µM [inhibitor, single point]"
Cc1cc(C(=O)N2CCCCCCNC(=O)[C@@H]3CCC[C@@H]32)nn1C,,"inconclusive: 50.1 µM [inhibitor, partial curve, poor fit]"
COc1ccccc1-c1cnc2n[nH]c(-c3ccc4c(c3)OCO4)c2n1,,active: 35.5 µM
CN1C(=O)CO[C@H](c2ccc(NC(=O)c3ccc(-c4ccccc4)cc3)cc2)[C@H]1CO,,"inconclusive: 100 µM [inhibitor, partial curve, poor fit]"
O=C(Cc1ccsc1)N1CCOc2ccc(CN3CCc4ccccc4C3)cc2C1,,"inconclusive: 56.2 µM [inhibitor, partial curve, poor fit]"
COCCNC(=O)CNC(=O)c1cccc(-c2ccsc2)c1,inactive: -22.9% [at 172 µM],
CN(Cc1cccc(N2CCN(S(=O)(=O)c3ccc4ccccc4c3)CC2)c1F)S(C)(=O)=O,,"inconclusive: 56.2 µM [inhibitor, partial curve, poor fit]"
COc1cccc(-c2n[nH]c3c2CC(=O)N(Cc2ccccc2)C3)c1OC,,"inconclusive: 100 µM [inhibitor, partial curve]"
COc1ccc(C(=O)N2CCCC2C(=O)N2CCCC2c2nc3ccncc3[nH]2)cc1 (centres undefined),inactive: 4.36%,
C[C@H](C(=O)N1CCCC1)[C@@H]1CC[C@@]2(C)Cc3sc(-c4ccsc4)nc3[C@@H](C)[C@@H]2[C@H]1O,,"inconclusive: 89.1 µM [inhibitor, single point]"
CC(=O)Nc1cccc(-c2cc(-c3ccncc3)c3cncn3c2)c1,,"inconclusive: 63.1 µM [inhibitor, partial curve, poor fit]"
C=CCOc1c(OC)ccc2c1CN(CC)C(=O)CCN2CC(O)COc1ccc(OC)cc1 (centres undefined),,active: 39.8 µM
O=C(NCCc1noc(-c2ccccc2)n1)c1n[nH]c2ccccc12,,"inconclusive: 31.6 µM [inhibitor, partial curve, poor fit]"
C[C@H]1[C@@H]2[C@@H](O)C([C@H](C)C(=O)N3CCCC3)CC[C@@]2(C)CC[C@@H]1NC(=O)c1ccccc1 (some centres undefined),inactive: -23.1% [at 172 µM],
CCOc1ccc(NC(=O)c2ccc3c(c2)N(C)C2CCCCCN2C3=O)cc1 (centres undefined),,"inconclusive: 44.7 µM [inhibitor, partial curve, poor fit]"
